Screen size: about 76,000 compounds; about 1,900 (2.5%) were called active. Inconclusive means that the source gave no clear call. Such entries were picked first, then a sample of the others. Calls come from the whole dose curve; as a rule, active = well fitted inhibition curve with a large enough effect; inconclusive = small, poorly fitted or top-dose-only effect; inactive = flat fitted curve, though single readings scatter. Where the call is inconclusive, the potency comes from a doubtful curve fit.
Target: Luciferin 4-monooxygenase (Photinus pyralis) (UniProt P08659)
Assay: Firefly luciferase inhibition profiling of diverse chemical library using quantitative high-throughput screening; note: nearly all actives have a fitted effect of over 65% in size
Conditions: purified P. pyralis luciferase, luminescence, biochemical; series mostly up to 115 µM
Outline: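 Inhibitors were tested against purified firefly luciferase in a biochemical, low-substrate format (both substrates at 10uM) and luminescence measured with a CCD imager.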
Potency is the fitted concentration of half-maximal effect; tags give direction and shape of the fitted curve.

Chain of UniProt P08659 (P08659 whole entry, looked up): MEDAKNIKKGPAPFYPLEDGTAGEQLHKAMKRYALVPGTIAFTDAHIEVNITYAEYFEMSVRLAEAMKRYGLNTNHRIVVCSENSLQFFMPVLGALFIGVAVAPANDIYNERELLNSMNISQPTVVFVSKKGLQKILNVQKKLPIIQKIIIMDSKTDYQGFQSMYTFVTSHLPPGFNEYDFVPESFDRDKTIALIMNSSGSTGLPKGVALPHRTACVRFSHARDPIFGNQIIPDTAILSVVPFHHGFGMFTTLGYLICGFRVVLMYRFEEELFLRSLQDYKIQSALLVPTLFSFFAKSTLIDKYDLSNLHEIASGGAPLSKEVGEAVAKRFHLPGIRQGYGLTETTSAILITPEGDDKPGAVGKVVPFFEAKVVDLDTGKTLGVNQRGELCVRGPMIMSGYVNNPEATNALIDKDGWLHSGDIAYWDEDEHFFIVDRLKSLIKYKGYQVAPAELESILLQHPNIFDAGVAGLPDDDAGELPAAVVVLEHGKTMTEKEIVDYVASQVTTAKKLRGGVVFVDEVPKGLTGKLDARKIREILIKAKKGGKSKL

Compound	Potency
COCC(=O)N[C@H]1C[C@@H](c2nc(-c3ccc(F)cc3)no2)N(C)C1	inactive
Cc1cn2nc(C(=O)Nc3ccc(C(=O)N4CCCC4)cc3)cc2c(=O)[nH]1	active: 7.94 µM
COCCN(C)C[C@H]1C[C@H](CO)CN(C(=O)CN2CCc3ccccc3C2)C1	inactive
Cc1ccccc1N1CCN(C(=O)c2ccc3c(c2)N(C)C2CCCCCN2C3=O)CC1 (configuration not stated)	inactive
O=C(NCCC1CCN(C(=O)Nc2cccc(F)c2)CC1)C1CCC1	inconclusive: 44.7 µM [inhibitor, partial curve, poor fit]
CNC(=O)c1cccc(-c2cnc(NC(=O)c3ccncc3)c3c2CCO3)c1	active: 12.6 µM
COc1ccc(-c2cc(-c3ccc(F)cc3)cn3cncc23)cc1	inconclusive: 112 µM [inhibitor, single point]
Cc1cc2nc(CO[C@H]3CN(Cc4ccccc4F)C[C@H]3F)[nH]c2cc1C	inconclusive: 39.8 µM [inhibitor, partial curve, poor fit]
COCc1noc([C@@H]2CC(F)(F)CN2S(=O)(=O)c2ccccc2)n1	inactive
CC(C)(C)c1ccc(C(=O)Nc2nc3c(s2)C[C@@H]2[C@](C)(CO)[C@H](O)CC[C@@]2(C)[C@@H]3CC(=O)N2CCC(C(N)=O)CC2)cc1	inconclusive: 44.7 µM [inhibitor, partial curve]
Cc1cc(NC(=O)c2ccc3c(c2)N(C)C2CCCCN2C3=O)ccc1Br (configuration not stated)	inconclusive: 39.8 µM [inhibitor, partial curve]
CC1(CCCCN2CCOCC2)COc2ccc(C(=O)Nc3ccccc3)cc2N1 (configuration not stated)	inconclusive: 50.1 µM [inhibitor, partial curve]
CO[C@H]1C(=O)N(C2CCN(C(=O)C3CCCC3)CC2)[C@H]1c1ccncc1	inactive
CCCc1nc(C)n2ccn(Cc3cccc(C#N)c3)c(=O)c12	inactive
CCNC(=O)N1CCC(Cc2ccc(C(=O)Nc3cccc(F)c3)cc2)CC1	active: 25.1 µM
Cc1cccc(-c2noc([C@@H]3C[C@@H](O)CN3Cc3ncc[nH]3)n2)c1	inconclusive: 63.1 µM [inhibitor, full curve, poor fit]
O=C(N[C@H]1CO[C@H]2[C@@H]1OC[C@H]2OCc1ccccc1)c1ccc(C(F)(F)F)cc1	inconclusive: 112 µM [inhibitor, partial curve]
O=c1c2nc(N3CCC(c4ccccc4)CC3)ccc2ncn1C1CC1	active: 1.41 µM
O=C(Nc1ccccc1)N1CCc2c(c3ccccc3n2CC2CC2)C1	inconclusive: 44.7 µM [inhibitor, partial curve]
COc1ccc(CNC(=O)c2cc3c(=O)[nH]c(C)cn3n2)c(OC)c1	inconclusive: 44.7 µM [inhibitor, partial curve, poor fit]
Cc1ccccc1NC(=O)c1ccc2c(c1)OCCN(C1CCC1)C2	inconclusive: 70.8 µM [inhibitor, partial curve]

Compound	Potency
O=C(NCC1CCCCC1)C1CCN(C(=O)c2ncn3c2COC(c2ccc(Cl)cc2)C3)CC1 (configuration not stated)	inconclusive: 56.2 µM [inhibitor, partial curve, poor fit]
COc1ccc(-c2cc3c(=O)n(CCNC(=O)c4ccc(OC)nc4)ccn3n2)cc1	inconclusive: 15.8 µM [inhibitor, partial curve]
CN(C)c1nccnc1OC1CCN(C(=O)C2CCCCC2)C1 (configuration not stated)	inconclusive: 39.8 µM [inhibitor, partial curve]
CN1c2cc(C(=O)NCc3cccs3)ccc2C(=O)N2CCCC21 (configuration not stated)	inconclusive: 39.8 µM [inhibitor, partial curve]
Cc1ccccc1CN1CC2(COCC1=O)CN(c1ccc(C(F)(F)F)cn1)C2	inactive
COc1ccc(N2CCC(NC(=O)c3cccc(N(C)C)c3)C2=O)cc1 (configuration not stated)	inconclusive: 44.7 µM [inhibitor, partial curve]
COc1ccc(-c2noc([C@@H]3C[C@@H](O)CN3C(C)C)n2)cc1	inconclusive: 50.1 µM [inhibitor, full curve]
O=C(Nc1ccc(Oc2ccccc2)cc1)O[C@@H]1CO[C@H]2[C@@H]1OC[C@@H]2NC(=O)c1ccccn1	inconclusive: 44.7 µM [inhibitor, partial curve]
COc1ccc(C(=O)Nc2ncc(-c3cccc(N(C)C)c3)c3c2OCC3)cc1	inconclusive: 63.1 µM [inhibitor, full curve]
COc1ccc(Nc2nc(-c3ccccc3F)no2)cc1OC	active: 2.24 µM
O=c1c2c(CO)c(-c3ccccc3)nn2ccn1Cc1ccccc1	inconclusive: 44.7 µM [inhibitor, partial curve]
COc1ccccc1CN1C[C@@H](C(=O)O)C[C@H](C(=O)NCc2ccccn2)C1	inactive
COc1ccc([C@H]2C[C@@H](O)[C@@H](O)[C@@H]2NC(=O)c2ccc3c(c2)OCCO3)cc1	inconclusive: 50.1 µM [inhibitor, partial curve]
c1ccc(Cn2cc(CN3CCCOCC3)c(-c3cc4ccccc4o3)n2)cc1	active: 35.5 µM
O=[N+]([O-])c1cccc(-c2noc([C@@H]3Cc4nc[nH]c4CN3)n2)c1	inconclusive: 63.1 µM [inhibitor, partial curve]
c1ccc(Nc2cc3c(cn2)CN(Cc2ccn[nH]2)CCN3)cc1	active: 7.94 µM
O=C(NCc1ccc(N2CCOCC2)cc1)c1cccc2c1CCN2C(=O)c1ccccc1	active: 39.8 µM
NC(=O)[C@H](CC1CCCCC1)NC(=O)[C@@H]1CN(C(=O)Nc2ccccc2)CCN1C(=O)C1CCCCC1	inactive
CCC(CC)N1CCN(C(=O)c2ccc3c(c2)N(S(C)(=O)=O)CC3)CC1	active: 35.5 µM
COc1cccc(C(=O)N2CC(Oc3ccccc3-c3nc(-c4ccccc4)no3)C2)c1	inconclusive: 50.1 µM [inhibitor, partial curve]
CC(=O)N1CCC(Cc2ccc(C(=O)Nc3ccc(C)cc3)cc2)CC1	inconclusive: 44.7 µM [inhibitor, partial curve]

Reference: PubChem BioAssay AID1347043 (National Center for Advancing Translational Sciences (NCATS), 2019)
